Test results published in article PMC12820563, “FoxP3 forms a head-to-head dimer in vivo and stabilizes its multimerization on adjacent microsatellites”.
The list shows a part of the results.

Biological target: T1, MBP-FoxP1dN (Mus musculus, UniProt P58462 326-579)
T1 sequence: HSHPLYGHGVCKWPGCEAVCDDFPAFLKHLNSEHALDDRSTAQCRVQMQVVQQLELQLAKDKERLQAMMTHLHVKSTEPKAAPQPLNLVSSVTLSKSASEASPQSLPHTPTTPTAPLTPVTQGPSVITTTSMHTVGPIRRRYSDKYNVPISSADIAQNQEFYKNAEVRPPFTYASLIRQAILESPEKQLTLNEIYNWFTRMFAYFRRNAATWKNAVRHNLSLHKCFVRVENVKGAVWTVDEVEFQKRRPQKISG
Experiment: PD-seq (MBP pull-down with sequencing); 20 mM Tris-HCl pH 7.5, 100 mM NaCl, 1.5 mM MgCl2, 0.4 uM protein, 0.1 uM dsDNA library, 30 min, room temperature, amylose pull-down; high values mean tight binding
Details: protein: recombinant; tags: His6-MBP; chain copies: 2; dsDNA, one strand shown
In short: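 A degenerate double-stranded DNA library, filled in with Klenow, was added at 0.1 µM to 0.4 µM His6-MBP-tagged mouse FoxP3 or FoxP1 fragment lacking the N-terminus, expressed in E. coli. Incubation lasted 30 min at room temperature in Tris pH 7.5 buffer with NaCl and MgCl2, after which complexes were collected on amylose resin, washed three times, digested with proteinase K to free the DNA, barcoded by PCR and sequenced by Illumina. Binding is the pooled-replicate reads-per-million enrichment of pull-down over input.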

Row | Sequence | binding signal
1 | GATGATTGTTCTCCCAGCTGATGAATTACCCCATTCGAGTAAACAAATTTTCCTAATCTTTCTGTTCAAGCGCCATCTAC | 1.08 RPM ratio (pull-down/input)
2 | GATGATTGTTCTCCCAGCTGATGAATTTAGTGGTTCGAGTAAACAAATTTTCCTAATCTTTCTGTTCAAGCGCCATCTAC | 1.05 RPM ratio (pull-down/input)
3 | GATGATTGTTCTCCCAGCTGATGAATTGGTATAGTCGAGTAAACAAATTTTCCTAATCTTTCTGTTCAAGCGCCATCTAC | 1.05 RPM ratio (pull-down/input)
4 | GATGATTGTTCTCCCAGCTGATGAATTGAATCGTTCGAGTAAACAAATTTTCCTAATCTTTCTGTTCAAGCGCCATCTAC | 0.877 RPM ratio (pull-down/input)
5 | GATGATTGTTCTCCCAGCTGATGAATTAGCTAGGTCGAGTAAACAAATTTTCCTAATCTTTCTGTTCAAGCGCCATCTAC | 0.861 RPM ratio (pull-down/input)
6 | GATGATTGTTCTCCCAGCTGATGAATTGTCCCCGTCGAGTAAACAAATTTTCCTAATCTTTCTGTTCAAGCGCCATCTAC | 0.999 RPM ratio (pull-down/input)
7 | GATGATTGTTCTCCCAGCTGATGAATTTCGCCCTTCGAGTAAACAAATTTTCCTAATCTTTCTGTTCAAGCGCCATCTAC | 0.806 RPM ratio (pull-down/input)
8 | GATGATTGTTCTCCCAGCTGATGAATTTACGTTGTCGAGTAAACAAATTTTCCTAATCTTTCTGTTCAAGCGCCATCTAC | 1.44 RPM ratio (pull-down/input)
9 | GATGATTGTTCTCCCAGCTGATGAATTGAGGCTTTCGAGTAAACAAATTTTCCTAATCTTTCTGTTCAAGCGCCATCTAC | 0.909 RPM ratio (pull-down/input)
10 | GATGATTGTTCTCCCAGCTGATGAATTCTGTCTATCGAGTAAACAAATTTTCCTAATCTTTCTGTTCAAGCGCCATCTAC | 1.04 RPM ratio (pull-down/input)
11 | GATGATTGTTCTCCCAGCTGATGAATTCACCGAGTCGAGTAAACAAATTTTCCTAATCTTTCTGTTCAAGCGCCATCTAC | 0.819 RPM ratio (pull-down/input)
12 | GATGATTGTTCTCCCAGCTGATGAATTAATATTCTCGAGTAAACAAATTTTCCTAATCTTTCTGTTCAAGCGCCATCTAC | 0.907 RPM ratio (pull-down/input)
13 | GATGATTGTTCTCCCAGCTGATGAATTACCAAGCTCGAGTAAACAAATTTTCCTAATCTTTCTGTTCAAGCGCCATCTAC | 0.915 RPM ratio (pull-down/input)
14 | GATGATTGTTCTCCCAGCTGATGAATTAAATTCTTCGAGTAAACAAATTTTCCTAATCTTTCTGTTCAAGCGCCATCTAC | 0.933 RPM ratio (pull-down/input)
15 | GATGATTGTTCTCCCAGCTGATGAATTGAGATCGTCGAGTAAACAAATTTTCCTAATCTTTCTGTTCAAGCGCCATCTAC | 0.837 RPM ratio (pull-down/input)
16 | GATGATTGTTCTCCCAGCTGATGAATTTCACGTGTCGAGTAAACAAATTTTCCTAATCTTTCTGTTCAAGCGCCATCTAC | 0.808 RPM ratio (pull-down/input)

Row | Sequence | binding signal
17 | GATGATTGTTCTCCCAGCTGATGAATTGTTTGGGTCGAGTAAACAAATTTTCCTAATCTTTCTGTTCAAGCGCCATCTAC | 1.79 RPM ratio (pull-down/input)
18 | GATGATTGTTCTCCCAGCTGATGAATTGTTCTACTCGAGTAAACAAATTTTCCTAATCTTTCTGTTCAAGCGCCATCTAC | 1.15 RPM ratio (pull-down/input)
19 | GATGATTGTTCTCCCAGCTGATGAATTTACAATTTCGAGTAAACAAATTTTCCTAATCTTTCTGTTCAAGCGCCATCTAC | 1.4 RPM ratio (pull-down/input)
20 | GATGATTGTTCTCCCAGCTGATGAATTCGCCTACTCGAGTAAACAAATTTTCCTAATCTTTCTGTTCAAGCGCCATCTAC | 0.81 RPM ratio (pull-down/input)
21 | GATGATTGTTCTCCCAGCTGATGAATTGCCATCGTCGAGTAAACAAATTTTCCTAATCTTTCTGTTCAAGCGCCATCTAC | 0.975 RPM ratio (pull-down/input)
22 | GATGATTGTTCTCCCAGCTGATGAATTGAGCACGTCGAGTAAACAAATTTTCCTAATCTTTCTGTTCAAGCGCCATCTAC | 0.881 RPM ratio (pull-down/input)
23 | GATGATTGTTCTCCCAGCTGATGAATTGGAAAGTTCGAGTAAACAAATTTTCCTAATCTTTCTGTTCAAGCGCCATCTAC | 0.81 RPM ratio (pull-down/input)
24 | GATGATTGTTCTCCCAGCTGATGAATTCAGTTGTTCGAGTAAACAAATTTTCCTAATCTTTCTGTTCAAGCGCCATCTAC | 1.33 RPM ratio (pull-down/input)
25 | GATGATTGTTCTCCCAGCTGATGAATTCTACTATTCGAGTAAACAAATTTTCCTAATCTTTCTGTTCAAGCGCCATCTAC | 0.911 RPM ratio (pull-down/input)
26 | GATGATTGTTCTCCCAGCTGATGAATTAATCGAGTCGAGTAAACAAATTTTCCTAATCTTTCTGTTCAAGCGCCATCTAC | 0.914 RPM ratio (pull-down/input)
27 | GATGATTGTTCTCCCAGCTGATGAATTACAACGCTCGAGTAAACAAATTTTCCTAATCTTTCTGTTCAAGCGCCATCTAC | 1.18 RPM ratio (pull-down/input)
28 | GATGATTGTTCTCCCAGCTGATGAATTACACCGTTCGAGTAAACAAATTTTCCTAATCTTTCTGTTCAAGCGCCATCTAC | 1.17 RPM ratio (pull-down/input)
29 | GATGATTGTTCTCCCAGCTGATGAATTACATTGCTCGAGTAAACAAATTTTCCTAATCTTTCTGTTCAAGCGCCATCTAC | 1.21 RPM ratio (pull-down/input)
30 | GATGATTGTTCTCCCAGCTGATGAATTCTCGCCCTCGAGTAAACAAATTTTCCTAATCTTTCTGTTCAAGCGCCATCTAC | 0.794 RPM ratio (pull-down/input)
31 | GATGATTGTTCTCCCAGCTGATGAATTAAGCCGATCGAGTAAACAAATTTTCCTAATCTTTCTGTTCAAGCGCCATCTAC | 0.836 RPM ratio (pull-down/input)
